Results published in PubChem BioAssay AID248 (DTP/NCI, 2004).
Toxic doses and inconclusive results are not listed. Certain results were filed several times, with different values. The list is limited to them. There may be further records. Values that stand side by side do not match, cause unknown; dose, time, organism, isomer or construct need not be as stated for each record.

Test system: L1210 leukemia ip in BDF1 mice, survival T/C
Test: NCI In Vivo Anticancer Drug Screen. Data for tumor model L1210 Leukemia (intraperitoneal) in B6D2F1 (BDF1) mice
Details: higher = longer survival

SMILES: COc1cc(C=Nc2ccc(-c3csc(COc4ccccc4)n3)cc2)ccc1N(CCCl)CCCl
- T/C (endpoint: mean survival time, dose: 33.0 mg/kg/injection, schedule: Q01DX015 (ip), vehicle: carboxymethylcellulose (CMC)): 111 % of control and 159 % of control

SMILES: C1OC1CN1CCN(CC2CO2)CC1 (centres undefined)
- T/C (endpoint: mean survival time, dose: 25.0 mg/kg/injection, schedule: Q01DX009 (ip), vehicle: saline): 109 % of control, 191 % of control, 195 % of control

SMILES: COc1cccc2c1C(=O)c1c(O)c3c(c(O)c1C2=O)CC(O)(C(C)=O)CC3OC1CC(N)C(O)C(C)O1 (centres undefined)
- T/C (endpoint: median survival time, dose: 30.0 mg/kg/injection, schedule: Q01DX005 (ip), vehicle: water): 121 % of control and 172 % of control

SMILES: COc1cc(C=Nc2ccc(-c3nc(C)sc3C)cc2)ccc1N(CCCl)CCCl
- T/C (endpoint: mean survival time, dose: 16.6 mg/kg/injection, schedule: Q01DX001 (ip), vehicle: carboxymethylcellulose (CMC)): 123 % of control and 151 % of control
